The values below come from the RNAGym collection of RNA variant scans (doi:10.1073/pnas.2313332121).

Variants at the background level are over-represented here.

B1: TPR 5TU (parent)
chain: GGAUCUUCUCGAUCUAACAAAAAAGACAAAUCUGCCACAAAGCUUGAGAGCAUCUUCGGAUGCAGAGGCGGCAGCCUUCGGUGGCGCGAUAGCGCCAACGUUCUCAACUAUGACACGCAAAACGCGUGCUCCGUUGAAUGGAGUUUAUCAUG

This data set covers variants of B1. The experiment in a line: polymerase ribozyme fitness, log enrichment relative to wild type (log ratio); higher = more active; in vitro selection for triplet polymerase activity. A digest of the protocol:
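The heterodimeric triplet polymerase ribozyme's subunits were each mutagenized into PCR-built libraries and transcribed. Every library was selected once, in triplicate, by annealing with a biotinylated primer, the partner subunit and triplets, incubating frozen at −7 °C, gel-excising extended constructs, capturing on streptavidin beads and running RT-PCR. Input and output libraries were Illumina-sequenced, with genotypes kept only at ≥10 input reads and ≥1 read per output. Fitness, from inverse-variance-weighted replicate averages, is the base-2 logarithm of genotype enrichment over wild-type enrichment.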
Take GGAUCUUCUCGAUCUAACUAAAAAGACAAAUCUGCCACAAAGCUGGAGAGCAUCUUCGGAUGCAGAGGCGGCAGCCUUCGGUGGCGCGAUAGCGCCAACGUUCUCAACUAUGACACGCAAAACGCGUGCUCCGUUGAAUGGAGUUUAUCAUG: the “polymerase ribozyme fitness (log ratio)” value is -0.38. As for GGAUCUUCUCGAUCUAACUAAAAAGACAAAUCUGCCACAAAGCUUGAGAGCAACUUCGGAUGCAGAGGCGGCAGCCUUCGGUGGAGCGAUAGCGCCAACGUUCUCAACUAUGACACGCAAAACGCGUGCUCCGUUGAAUGGAGUUUAUCAUG, the figure is -3.78; as for GGAUCUUCUCGAUCUAACUAAAAAGACAAAUCUGCCACAAAGCUUGAGAGCAUCUUCGGAUGCAGAGGCGGCAGCCUUCGGUGGCGCGAUAGCGCCAAUGUUCUCAACUAUGACACGCAAAACGCGUGCUCCCUUGAAUGGAGGUUAUCAUG, -2.25; as for GGAUCUUCUCGAUCUAACUAAAAAGACAAAUCUGCCACAAAGCUUGAGAGCAUCUUCGGAUGCAGAGGCGGCAGCCUUCGGUGGCGCGAUAACGCCAACGUUCUAAACUAUGACACGCAAAACGCGUGCUCCGUUGAAUGGAGUUUAUCAUG, no more than -4.2. As for GGAUCUUCUCGAUCUAACUAAAAAGACAAAUCUGCCACAAAGCUUGAGAUCAUCUUCCGAUGCAGAGGCGGCAGUCUUCGGUGGCGCGAUAGCGCCAACGUUCUCAACUAUGACACGGAGAACGCGUGCUCCGUUGAAUGAAGUUAAUCAUG, the figure is no more than -4.2. With GGAUCUUCUCGAUCUAACUAAAAAGACAAAUCUGCCACAAAGCUUGAGAGCAUCUUCGGAUGCAGAGGCGGCAGCCUUCGGUGGCGCGAUAGCCCCAACGUUCUCAACUAUGACACGCAAAACGCGUGCUCCGUUGAAUGGAGUGUAUCAUG the figure was -0.324.

In the case of GGAUCUUCUCGAUCUAACUAAAAAUACAAAUCUGCCACAAAGCUUGAGCGCAUCGGCGGAUGCAGAGGCGGCAGCCUUCGGUGGUGCGAUAGCGCCAGCGUUCUCGACUAUGACACGUAAAACGCGUGCUCCAUUGAAUGGAGUGUAUCAUG, the “polymerase ribozyme fitness (log ratio)” value is no more than -4.2. With GGAUCUUCUCGAUCUAACUAAAAAGACAAAUCUGCCACAAAGCUUGAGAGCAUCUUCGGAUGCAGAGGCGGCAGCCUUCGGUGGCUCGAUAGCGCCAACGUUCUCAACUAUGACACGCAAAACGCGUGCUCCGUUGAAUGGAGUUUAUCAUG the figure was -1.75. With GGAUCUUCUCGAUCUAACUAAAAAGACAAAUCUGCCACAAAGCUUGAGAGCAUCUUCGGAUGCAGAGGCGGCAGCCUUCGGUGGCCCGAUAGCGCCAACGUUCUCAACUAUGACACGCAAAACGCGUGCUCCGUUGAAUGGAGUUUAUCAUG the figure was -2.58; with GGAUCUUCUCGAUCUAACUAAAAAGACAAAUCUGCCACAAACCUUGAGAGCAUCUUCGGAUGCAGAGGCGGCAGCCUUCGGUGGCUCGAUAGCGCCAACGUUCUCAACUGUGACAAUCAAAACGCGUGCUCCGUUGAAUGGAGUUUAUCAUG, no more than -4.2; with GGAUCUUCUCGAUCUAACUAAAAAGACAAAUCUGCCACAAAGCUUGAGAACAUCUUCGGAUGCAGAGGCGGCAGCCUUCGGUGGCGCGAUAGCGCCAACGUUCUCAACUAUGACACGCAAAACGCGUGCUCCGUUGAAUGGAGUUUAUCAUG, -1.63. In the case of GGAUCUUCUCGAUCUAACUAAAAAGACAAAUCUGCCACAAAGCUUGAGAGCAUCUUCGGAUGCAGAGGCAGCAGCCUUCGGAGGCGCGAUAGCGCCAACGUUCUCAACUAUGACACGCAAAACGCGGGCUCCGUUGAAUGGAGUUUAUCAUG, the “polymerase ribozyme fitness (log ratio)” value is no more than -4.2. As for GGAUCUUCUCGAUCUAACUAAAAAGACAAAUCUGCCACAAAGCUUGAGAGCAUCAUCGGAUGCAGAGGCGGUAGCCUUCGGUGGCGCGAUAGCGCCAACGUUCUCAACUAUGACACGCAAAACGCGUGCUCCGUUGAAUGGAUUUUAUCAUG, the figure is no more than -4.2. As for GGAUCUUCUCGAUCUAACUAAAAACACAAAUCUGCCACAAAGCUGGAGAGCAUCUUCCGAUGCAGAGGCGGCAGCCUUCGGUGGCGCGUUAGCUCCAACGUUCUCAACUAUGACACGCAACACGCGUUCUCCGUUGAAUAGAGUUUAUCAUG, the “polymerase ribozyme fitness (log ratio)” value is no more than -4.2. As for GGAUCUUCUCGAUCUAACUAAAAAGACAAAUCUGCCACAAAGCUUGAAAGCAUCUUCGGAUGCAGAGGCGGCAGCCUUCGGUGGCGCGAUAGCGCCAACGUUCUCAACUAUGACACGCAAAACGCGUGCUCCGUUGAAUGGAGUUUAUCAUG, the figure is -1.05; as for GGAUCUUCUCGAUCUAACUAAAAAGACAAAUCUGCCACAAAACUAGAGAGCAUCUUAGGAUGCAGAGGCGGCAGCCUUCGGUGGCGGGAUAGCGCCAACGUUCUCAACUAUGACACGCAAAACGCGUGCUUCGUUGAAUGGCGUUUAUCAUG, no more than -4.2. Consider GGAUCUUCUCGAUCUAACUAAAAAGACAAAUCUGCCACAAAGCUUGAGAGCAUCAUCGGGUGCAGAGGCGGCAGCCUUCGGUGGCGCGAUAGCUCCAACGUUCUCAACUAUGACACGCAAAACGCGUGCUCCGUUGAAUGGAUUUUAUCAUG, for which the “polymerase ribozyme fitness (log ratio)” value was -3.55. As for GGAUCUUCUCGAUCUAACUAAAAAGACAAAUCUGCCACAAAGCUUGAGAGCAACUUCGGAUGCAGAGGCGGCAGCCUUCGGGGGCGGGAUAGCGCCAACGUUCUCAACUAUGACACGCAAAACGCGUGCUCCGUUGAAUAGAGUUUAUCAUG, the figure is no more than -4.2; as for GGAUCUUCUCGAUCUAACUAAAAAGACAAAUCUGCCACAAAGCUUGAGAGCAUCUUCGGAUGCAGAGGCAGCAGCCUUCGGUGGCGCGAUAGCGCCAACGUUCUCAACUAUGACACGCAUAACGCGUGCUCCGUUGAAUGGAGUUUAUCAUG, no more than -4.2; as for GGAUCUUCUCGAUCUAACUAAAAAGACAAAUCUGCCACAAAGCUUAAGAGCAUCUUCCGAUGCAGAGGCGGCAGCCUUCGGUGGCGCGAUAGCGCCUACGUUCUCAACUAUGACACGCAAAACGCGUGCUCCGAUGAAUGGAGUUUAUCAUG, no more than -4.2. As for GGAUCUUCUCGAUCUAACUAAAAAGACAAAUCCGCCACAAAGGUUGAGAGCAUCUUCGGAUGCAGAGGCGGCAGCCUUCGAUGGCGCGAUAGCGCCAACGUUCUCAACUAUGACACGCAAAACGCGUGCUCCGUUGAAUGGAGUUUAUCAUG, the “polymerase ribozyme fitness (log ratio)” value is no more than -4.2.

Take GGAUCUUCUCGAUCUAACUAAAAAGACAAAUCUGCCACAAAGCUUGAGACCAUCUUCGGAUGCAGAGGAGGCAGCCUUCGGUGGUGCGAUAGCGCCAACGUUCUCAACUCUGACACGCAAAACGCGUGCUCCGUUGAAUGGAGUUUAUCAUG: the “polymerase ribozyme fitness (log ratio)” value was no more than -4.2. As for GGAUCUUCUCGAUCUAACUAAAAAGACAAAUCUGCCACAAAGCUUGAGACCAUCUUCGGAUGCAGAGGCGGCAGCCUUCGGUGGCGUGAUAGCGCCAACGUUCUCAACUAUGACACGCAAAACGGGUGCUCCGUUGAAUGGAGUUUAUCAUG, the figure is no more than -4.2; as for GGAUCUUCUCGAUCUAACUAAAAAAACAAAUCUGCCACAAAGCUUGAGAGCAUCUUCGGAAGCAGAGGCGGCAGCCUUCGGUGGCGCGAUAGCGCCAACGUUCUCAACUAUGACACGCAAAACGCGUGCUCCGUUGAAUGGAGUUUAUCAUG, no more than -4.2. As for GGAUCUUCUCGAUCUAACUAAAAAGACAAAUCUGCCACAAAGCUUGAGAGCAUCUUCGGAUGCAGAGGCGGCAGCCUUCGGUGGCGCGAUAUCGCCAACGUUCUCAACUAUGACACGCAAAACCCGUGCUCCGUUGAAAGGAGUUUAUCAUG, the figure is no more than -4.2; as for GGAUCUUCUCGAUCUAACUAAAAAGACAAAUCUGCCACAAACCUUGAGAGCAUCUUCGGAUGCAGAGGCGGCAGCCUUCGCUGGCGAGAUAGCGCCAACGUUCUCAACUAUGACACGUGAAACGCGUGCUCCGUUGAAUGGAGUUUAUCAUA, no more than -4.2. For GGAUCUUCUCGAUCUAACUAAAAAGACAAAGCUGGCACAAAGCUUGAGAGCAUCUUCGGAUGCAGAGGCGGCAGGCUUCGGUCGCGCGAUAGCGCUAACGUUGUCAACUAUGACACGCAAAACGCGUGCUCCGUUGAAUGGAGUUUAUCAUG, the “polymerase ribozyme fitness (log ratio)” value was no more than -4.2. With GGAUCUUCUCGAUCUAACUAAAAAGACAAAUCUGCCACAAAGCUUGAGAACAUCAUCGGAUGCAGAGGCGGCAGCCUUCGGUAGGGCGAUAGCGCCAACGUUCUCAACUAUGACACGCAAAACGCGUGCUCCGUUGAAUGGAGUUUAUCAUG the figure was no more than -4.2; with GGAUCUUCUCGAUCUAACUAAAAAGACAAACCUGCCACAAAGCUUGAGAGUAUCUUCGGAUGCAGAGGCGGCAGCCUUCGGUGGCGCGAUAGCGCCAACGUUCUCAACUAUGACACGCAAAACGCGUGCUCCGUUGAAUGGAGUUUAUCAUG, 0.159. As for GGAUCUUCUCGAUCUAACUAAAAAGACAAAUCUGCCACAAAGCUUGAGAGCAUCUUCGGAUGCAGAGGCGGCAGCCUUCGGUGGCGCGAUACCGCCAACGUUCUCAACUAUGACACGCAAAACGCGUGCUCCGUUGAAUGGAGUUUAUCAUG, the figure is -1.68; as for GGAUCUUCUCGAUCUAACUAAAAAGACAAAUCGGCCACAAAGCUUGAGAGCAUCUUCGGAUGCCGAGGCGGCAGCCUUCGGUGGCGCGAUAGCGCCAACGUUCUCAGCUAUGACACGCAAAACGCGGGCUCCGUUGAAUGGAGUUUAUCAUG, no more than -4.2; as for GGAUCUUCUCGAUCUAACUAAAAAGACAAAUCUGCCACAAAGCUGGAGAGCAUCUUCGGAUGCAGAGGCGGCAGCCUUCGGUCGCGCGAUAGCGCCAACGUUCUCAACUAUGACACGCAAAACGCGAGCUCCGUUGAAUGGAGUUUAUCAUG, no more than -4.2.

On to GGAUCUUCUCGAUCUAACUAAAAAGACAAAUCUGCCACAAAGCUUGAGAGCAUCUUCGGAUGCAGAGGCGGCAGCCUUCGCUGGUGCGAUAGCGCCAACGUUCUCAACUAUGACACGCAAAACGCGUGCUCCGUUGAAUGGAGUAUAUCAUG, for which the “polymerase ribozyme fitness (log ratio)” value was -0.303.

Turning to GGAUCUUCUCGAUCUAACUAAAAAGACAAAUCCGCCACAAAGCUUGAGAGCAUCUUCGGAUGCAGAGGUGGCAGCCUUCGGUGGCGCGAUAGCGCCAACGUUCUCAACUAUGACACGCAAAACGCUUGCUCCGUUGAAUGGAGUUUAUCAUG, the “polymerase ribozyme fitness (log ratio)” value was -0.898. As for GGAUCUUCUCGAUCUAACUAAAAAGACAAAUCUGCCACAAAGCGUGAGACCAUCUUCGGAUGCAGAGGCGGCGGCAUUCGGUGGCGCGAUAGCGCCAACGUUCUCAACUAUGACACGCAAAACGCGUGCUCCGUUGAAUAGAGUUUAUCAUG, the figure is no more than -4.2; as for GGAUCUUCUCGAUCUAACUAAAAAGACAAAUCUGCCACAAAGCUUGAGAGCAUCUUCGGAUGCAGAGGCGGCAGCCUUCGGUUGCGCGAUAGCGCCAACGUUCUCAACUAUGACACGCAAAACGCGUGCUCCGUUGAAUGGAGUUUAUCAUG, -0.798. As for GGAUCUUCUCGAUCUAACUAAAAAGACAAAUCAACCACAAAGCUUGAGAGCAUCUUCGGAUGCAGAGGCGGCAGCCUUAGGUGGCGCGAUAGCGCCAACGUUCUCAACUAUGACACGUAAAACGAGUGCUCUAUUGAAUGGCGUUUAGCAUG, the figure is no more than -4.2; as for GGAUCUUCUCGAUCUAACUAAAAAGACAAAUCUGCCACAAAGCUUGAGAGCAUCUUCGGAUGCAGAGGCGUCAGCCUUAGGUGGUGCGAUAGCGCCAACGUUCUCAACUGUGACACGCAAAACGCGUGCUCCGAUGAAUGGAGUUUAUCAAG, no more than -4.2.
